# Data reported in the supplement of paper PMC11417369.
# ± gives the standard deviation of the averaged measurements. This is one part of the list.
# Tested on: PfAP2-EXP AP2 domain (GST-tagged)
# Assay: gcPBM binding intensity (ln(normalized median fluorescence intensity)); higher = stronger DNA binding
# Summary of the method: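 In this array assay, P. falciparum DNA-binding domains with a GST tag, expressed in E. coli, were applied for 1 h to primer-extended double-stranded 36-bp intergenic genomic probes and negative controls on an Agilent 4 × 180k array. Bound protein was visualised with Alexa488 anti-GST antibody at 488 nm. Binding intensity is the highest Masliner-normalised natural-log median intensity across replicate spots of either probe orientation.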
row,Sequence,gcPBM binding intensity (ln)
1,TTAAAGAATATTTTCACACATAAAAATTTTAATTTA [CACACA_site4290],7.86 ± 0.33
2,AATATTATTATCTTACCACACACAATCTACGAAAAG [CACACA_site8006],8.54 ± 0.57
3,TATGTCTTGTTGTAAAATATTTATTAACAAATTGGC [CACACA_negctrl_site1452],8.43 ± 0.59
4,TATATATATATAAGTGCACACTGAACCAAGAAAATT [CACACA_site5637],9.87 ± 0.2
5,ATTTTTATTTTCTTTACACACCACATAACTTTTTTT [CACACA_site7826],9.02 ± 0.51
6,ACTTTTTAATATTTTAGTACACAGTAATTCTTACTA [XGTACX_site1425],8.77 ± 0.16
7,ATATATATATATATATGTACATATATCTACATATAT [XGTACX_site7588],10.2 ± 0.14
8,TTTAATATGAATTTATGTACATATATATATATATAT [XGTACX_site6337],10.2 ± 0.35
9,TATATTAAAAAAAAATGTACATATATATAATATATA [XGTACX_site1935],8.54 ± 0.27
10,ATTTTAATACTTTTATATTAAATGTAGCACATCATA [XGTACX_negctrl_site273],8.45 ± 0.59
11,AAAGTAAAAAAAAAAACATGCATACGCTAATTTTTA [TGCATGCA_site301],8.06 ± 0.42
12,GATATGTTAAATATATGTACATATATAAACCCAAAC [XGTACX_site6601],8.9 ± 0.38
13,AAAAAGTGATTAAAATGTACAAAATGCATAAAAGAA [XGTACX_site6625],9.39 ± 0.41
14,TTATTTATTTAGTAGTGTACTTTTTATATTTATAAT [XGTACX_site5978],8.52 ± 0.38
15,CATTTTTTGCTTTCAACACACATACAATATAAATAA [CACACA_site7858],8.65 ± 0.2
16,AAAAAAAAAAAATACACACACATATATATATATATA [CACACA_site2224],10.2 ± 0.23
17,TATGTAATAAATAGTACACACACACCGATATATATA [CACACA_site8389],8.91 ± 0.43
18,TATAATAATATTATAGTGCATATTATTTATATATAA [GTGCAC_site9820],8.22 ± 0.2
19,TTTCTTTCTTCACATATATATATATATATATTTATA [TGCATGCA_negctrl_site341],8.83 ± 0.3
20,TAATAGAATATGATGGTGCAGCAGTCTTATTTTTCA,8.66 ± 0.41
21,TACATATAATATATTGCACACGTCAGAATAATATAG [CACACA_site1744],8.57 ± 0.13
22,CCCCCCCACGGACACACACACATACATACCACATAT [CACACA_site5303],10.3 ± 0.19

row,Sequence,gcPBM binding intensity (ln)
1,TTAGCCATTAATTCTCTACACACCTTTATGTTATTT [CACACA_site9212],8.74 ± 0.35
2,TTTTATAATATTTAAAGTACATTCTAAAAATATAAT [XGTACX_site8033],8.05 ± 0.23
3,TATAATTATTTTTTTCTAAATATTATAAGGTATTCA [GTGCAC_negctrl_site205],7.87 ± 0.4
4,AAATAAAATAAAATAAAATAAAATTCTTTGATACCT [TGCATGCA_negctrl_site604],8.33 ± 0.42
5,ATTTTTTTTTTTTTTTTTTTTTTTTAGATTAAGAAA [CACACA_negctrl_site1272],7.96 ± 0.57
6,CTATTTATTATATATACATGCATATATATATTAATA [TGCATGCA_site527],8.46 ± 0.26
7,TATTCTAATTTTTAAACACACAAATATAAATAAGTA [CACACA_site3149],8.29 ± 0.42
8,TATTCATATTTAAAGGTGCAATATTTATTTTGTACA,8.23 ± 0.16
9,TAAAAATGTGTATGTACACACTTTATTTTTAATACA [CACACA_site7235],8.41 ± 0.15
10,GATAATTATGGACACACACACACACCCACAACTAAA [CACACA_site8824],8.81 ± 0.42
11,AAAAAGAATGTGAACACACACATTGAATCTAATTTA [CACACA_site6711],8.21 ± 0.42
12,TATTAAACGAAACACACACACACACCCATATATAAA [CACACA_site759],8.73 ± 0.54
13,TATATAAAAAATTCAATACACACCATATATAAATAT [CACACA_site3987],8.59 ± 0.35
14,ACATATAATATATATATATATATATATATATATAAT [GTGCAC_negctrl_site648],8.66 ± 0.18
15,AGATGATATATTATATATCCTTTTAATAAATGTAAT [CACACA_negctrl_site730],8.07 ± 0.44
16,TATTTTTCCATATGCACACACACCGTATATATAATA [CACACA_site1127],9.28 ± 0.54
17,ATAACAAAATAAAACACACACACAAATGTACATATA [CACACA_site2425],8.9 ± 0.42
18,AAATAAATAATTTAATGTACATATATAATATATATA [XGTACX_site1831],8.5 ± 0.11
19,CATATACACCAACACACACACACACCCACAAAAAAA [CACACA_site496],8.53 ± 0.4
20,CTTTTTAATAAATATACACACACAAAAAAAAAAAAA [CACACA_site9316],8.36 ± 0.59
21,TAAATAAAGTATAATGCATGCTATTATAATATTAAT [TGCATGCA_site825],9.11 ± 0.28
22,CACTTTATACGTAATTGTACTTTTTCTTTTTTTTAT [XGTACX_site3175],8.89 ± 0.4

row,Sequence,gcPBM binding intensity (ln)
1,ACTTACTAATTAATGGGTACATACACACATATATAC [XGTACX_site1362],8.79 ± 0.36
2,TATTCAAAGAAAGACAGTACGTGTAGCAAACAACCT [XGTACX_site4218],8.75 ± 0.16
3,AATAAAAAAATAGAAACACACATTAAAAAAAATAAA [CACACA_site1333],8.56 ± 0.5
4,ATGATATATAGACACACACACATATTTATATACATT [CACACA_site6404],8.55 ± 0.35
5,TGTTAATAAAGGTGTACACAAAATAAAAAAAATTAT [CACACA_site4288],9.04 ± 0.28
6,TTTGTATAGTTGTAGGTGCATATCATTTTTAAATGT [GTGCAC_site9708],8.815 ± 0.021
7,AAAAAAAAAGGTAACGCATGCTTTTAGATTATATTA [TGCATGCA_site398],8.8 ± 0.32
8,TATAATTATATTTGGAGTACAAATTTTTTTTTTTTT [XGTACX_site7494],8.3 ± 0.32
9,AAGTATGCTTGCTACTTATTAAGTGGCAATATAATT [XGTACX_negctrl_site74],8.41 ± 0.31
10,AGAACCATATATAAATGTACATGTTAATATGAATAA [XGTACX_site130],8.7 ± 0.33
11,GGACAAAAAAAAAAAATAAAATAAAAATAAATAAAT [XGTACX_negctrl_site106],8.09 ± 0.47
12,TAACACTTATAAAAAAGTACTGATGAAATAATACTA [XGTACX_site7305],8.35 ± 0.38
13,AAATATATATGAAGATGTACATATATATATGTAAAT [XGTACX_site4039],8.61 ± 0.35
14,AAAAATTCCAGACACACACACACATATAAATAAATA [CACACA_site1232],8.53 ± 0.48
15,AAAAAAAAAAAAAAGAGTACTTTTTTCTCATTACTA [XGTACX_site8353],8.35 ± 0.25
16,TCTTTTAGTTTTATCCACATAATAAAAAGCAAAAAA [GTGCAC_negctrl_site368],8.28 ± 0.35
17,AAAAAAAAAAAAATAGGTACGTAAATATTTCTTTAA [XGTACX_site6423],8.18 ± 0.4
18,TATTCTTCAATTTAAAGTACAAAAATTACTATACTT [XGTACX_site6599],8.35 ± 0.22
19,AATTAAAATATATATATACACACGTAATTATATATA [CACACA_site3819],8.18 ± 0.37
20,ATTGTGGCAATATATTGTACATGTAATATAAATATA [XGTACX_site5415],8.71 ± 0.33
21,ATGTATGTTTATTACTATTTTGAGAATAGACTATAA [CACACA_negctrl_site1366],8.18 ± 0.4
22,AGTTATATGATTAATACACACAACAAATGTTTCTTC [CACACA_site1092],8.36 ± 0.35

row,Sequence,gcPBM binding intensity (ln)
1,AATTTGGTGTGTGTAAAAGTATGTGTCTATATTTAT [GTGCAC_negctrl_site166],8.79 ± 0.66
2,AAGAATCATATTTAAACACACATACAGATATATATA [CACACA_site5787],8.59 ± 0.49
3,ACGACTAAATATATGAGTACATATATATATAAATAT [XGTACX_site7522],8.33 ± 0.3
4,TCTAAAATAAATAATGCATGTTAAAAAAAAATATAT [TGCATGCA_site562],8.8 ± 0.38
5,TGCAAAAAATTCCACACACACACACCCATATAAATA [CACACA_site1230],8.68 ± 0.33
6,CAAATATGTCTTATTCGTACACATATATATATATAT [XGTACX_site8817],10 ± 0.38
7,AAGAAAATAAAAAATAAGCATAATATGATATGATAT [TGCATGCA_negctrl_site196],8.68 ± 0.39
8,TTTCTTTATAAATTAATATTCACAACACAAAATATA [CACACA_negctrl_site450],8.52 ± 0.48
9,GTGCATATAAGGAAGTGTACGAAAAAAAATATTCCA [XGTACX_site8490],8.81 ± 0.5
10,AAAAATTTGGCATACACACACACACCGACACAGACA [CACACA_site4489],8.85 ± 0.4
11,TTATATATATCTAATTGTACAATATTATGTTCATTA [XGTACX_site7479],8.51 ± 0.3
12,ATATATAATATAATATGTACATAAAATTTTAACATT [XGTACX_site5773],8.63 ± 0.29
13,ATTTATTAAATAAAAAGTACAAAATAAGAAAGAAGA [XGTACX_site6935],9.1 ± 0.35
14,AAAAAAACAGTGAATGCACACATTTAAGATCCATAT [CACACA_site3148],8.54 ± 0.39
15,TATATTCCCTTAATCACACATAAATAAAAAAAAATA [CACACA_site6094],8.41 ± 0.45
16,GAAATTTTTAATGTGGTGCACAGGAAATTTTTTCTT,8.76 ± 0.057
17,TATTTCCTTTTTCTTGTTATTCATGAGAAAAAATGA [CACACA_negctrl_site482],8.46 ± 0.42
18,AAAATAATAATAGGCACACATATATATATATATATA [CACACA_site2058],10.1 ± 0.33
19,TACATACATACAGGAGTGCATATATCACAATTATTA,8.71 ± 0.31
20,AGTATACTCGGACACACACACACATATATATATATA [CACACA_site5031],10.3 ± 0.2
21,AAAAAAAAAAAAACTACACACATACAAATATTTATA [CACACA_site5430],8.45 ± 0.66
22,AGTGGATGAGGACATACACACACACCGAAGTTGATA [CACACA_site9132],8.52 ± 0.43
